Test results published in PubChem BioAssay AID686979 (National Center for Advancing Translational Sciences (NCATS), 2013).
In all, about 420,000 compounds went through this assay and about 50,000 (12%) were called active. The inconclusive results got no clear call from the source; some entries with a clear call stand among them for comparison. Calls follow the shape of the dose curve; as a rule, active = well fitted inhibition curve with a large enough effect; inconclusive = small, poorly fitted or top-dose-only effect; inactive = flat fitted curve, though single readings scatter. No potency is given beside an inconclusive call; the fits are too rough.

test: qHTS for Inhibitors of human tyrosyl-DNA phosphodiesterase 1 (TDP1): qHTS in cells in presence of CPT; conditions: chicken DT40 Tdp1-/-;hTDP1 cells + 20 nM CPT, ATP luminescence, 48 h; activity change, negative = growth inhibition: at 46.2 µM (top of the series) unless noted; also: nearly all actives have a fitted effect of over 55% in size
Procedure, shortened: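 Chicken DT40 Tdp1-/- cells complemented with human TDP1, 400 cells/well, exposed to compounds plus 20 nM camptothecin for at least 48 h at 37 C; viability read as ATP content by CellTiter-Glo luminescence.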
% is scaled to controls: 0 for no effect and ±100 for the full control effect; potency is read from the fitted curve at half-maximal effect; tags tell the direction and shape of the fitted curve.

Q: For `CC[C@]12c3[nH]c4ccc(OC)cc4c3CCN1C(=O)C(CC(=O)NC/C=C(\C)CCC=C(C)C)C[C@@H]2C(=O)N1CCN(C(=O)c2ccco2)CC1` (stereo not given in full), which Potency is on record?
A: The Potency was inconclusive [inhibitor, single point].

Q: With `CC(C)c1ccc(S(=O)(=O)c2cnc(SCC(=O)Nc3ccc4c(c3)OCCO4)[nH]c2=O)cc1` as the molecule, how does the “activity change, negative = growth inhibition” value read?
A: The value was inactive: -2.56%.

Q: Which Potency does the source give for `COCCNC(=S)NNc1cccc(C(=O)O)c1` here?
A: Its Potency is inconclusive [inhibitor, single point].

Q: For `Cc1ccc(Cn2cnc3nc4c(cc3c2=O)CC(C)CC4)cc1` (stereo not given), which Potency is on record?
A: Its Potency is active: 20.6 µM.

Q: For `COc1ccc(NC(=O)CSCC(=O)N(C)Cc2cccc(OC)c2OC)cc1`, which activity change, negative = growth inhibition is on record?
A: Its activity change, negative = growth inhibition is inconclusive: -30.1% [inhibitor].

Q: Which Potency does the source give for `O=C(C1CCC1)N1CCc2cc(S(=O)(=O)Nc3ccc4c(c3)OCO4)ccc21` here?
A: Its Potency is active: 11.2 µM.

Q: With `COc1ccc(C(=O)c2c(-c3cccc(C)c3)oc3ccc(N4CCOCC4)cc23)cn1` as the molecule, how does the Potency read?
A: The Potency was inconclusive [inhibitor, single point].

Q: Which Potency does the source give for `COc1cccc(C(=O)Nc2nnc(S(=O)(=O)N3CCCC3)s2)c1` here?
A: The Potency was inconclusive [inhibitor, single point].

Q: With `O=C(Cn1ccc(C(F)(F)F)n1)N=Nc1c(O)[nH]c2ccc(Br)cc12` as the molecule, how does the “activity change, negative = growth inhibition” value read?
A: Its value is inactive: -17.6%.

Q: For `CC1(C)CC(=Cc2ccccc2[N+](=O)[O-])C(=O)c2ccccc21`, which “activity change, negative = growth inhibition” value is on record?
A: The value was inactive: -29.7%.

Q: Which Potency does the source give for `O=[N+]([O-])c1ccccc1-c1cc(-c2ccccc2O)n[nH]1` here?
A: Its Potency is inconclusive [inhibitor, single point].

Q: With `COc1ccc(CCNC(=O)Nc2ccc3c(c2)c(=O)n(C)n3Cc2ccc(F)cc2)cc1OC` as the molecule, how does the Potency read?
A: Its Potency is inconclusive [inhibitor, partial curve].

Q: Which Potency does the source give for `Cc1cccc(C(=O)NNc2ncnc3c2cnn3-c2ccc(C)cc2C)c1` here?
A: Its Potency is active: 23.1 µM.

Q: For `COc1ccc(C(=O)NNC(=S)NC(=O)c2ccc(OC)cc2)cc1`, which Potency is on record?
A: The Potency was active: 16.4 µM.

Q: Which Potency does the source give for `CC(C)c1nc2cc(C(=O)N(C)Cc3ccc(F)cc3)ccc2o1` here?
A: Its Potency is inconclusive [inhibitor, single point].

Q: Which Potency does the source give for `CCCC(=O)Nc1ccc(Cl)c(NC(=O)c2ccc([N+](=O)[O-])cc2Cl)c1` here?
A: Its Potency is inconclusive [inhibitor, partial curve].

Q: With `CCOC(=O)NN1C(=O)c2ccccc2NC1c1ccc(OC)cc1` (stereo not given) as the molecule, how does the Potency read?
A: Its Potency is inconclusive [inhibitor, single point].

Q: With `CN(C)CC/C=C1\c2cc(F)ccc2CSc2ccccc21` as the molecule, how does the Potency read?
A: Its Potency is inconclusive [inhibitor, single point].

Q: For `CCCCCCCN(C(=O)CCl)c1cccc(C)c1`, which Potency is on record?
A: The Potency was inconclusive [inhibitor, single point].

Q: For `Cc1ccc(NC(=O)N2CCC(C(=O)c3ccc(F)cc3)CC2)cc1`, which Potency is on record?
A: The Potency was inconclusive [inhibitor, partial curve, poor fit].

Q: For `COc1cc(C(=O)NCc2cc3cc(Cl)ccc3n2C)cc(OC)c1OC`, which Potency is on record?
A: Its Potency is inconclusive [inhibitor, partial curve].

Q: For `Cc1c(O)ccoc1=O`, which “activity change, negative = growth inhibition” value is on record?
A: The value was inactive: 8.96%.

Q: Which Potency does the source give for `CCCNC(=O)CN1C(=O)CSc2ccc(S(=O)(=O)N3CCC(C)CC3)cc21` here?
A: The Potency was inconclusive [inhibitor, single point].

Q: For `COc1ccc(CNC(=O)CC2C(=O)NCCN2CC(C)(C)C)c(OC)c1` (stereo not given), which Potency is on record?
A: Its Potency is inconclusive [inhibitor, single point].

Q: For `O=C(O)c1cccc(S(=O)(=O)N2CCN(Cc3ccc4c(c3)OCO4)CC2)c1`, which “activity change, negative = growth inhibition” value is on record?
A: The value was inactive: 13.6%.

Q: For `COc1ccc2oc(C(=O)Nc3nc(C)cs3)c(C)c2c1`, which Potency is on record?
A: Its Potency is inconclusive [inhibitor, single point].

Q: Which Potency does the source give for `COc1cccc(/C=N/NC(=O)c2nc(-c3ccccc3)cc(-c3ccccc3)n2)c1` here?
A: Its Potency is active: 16.4 µM.

Q: With `CC(C)[C@H](NC(=O)c1ccccc1Cl)C(=O)OCC(=O)N1CCCCC1` as the molecule, how does the “activity change, negative = growth inhibition” value read?
A: The value was inactive: 13.7%.

Q: Which Potency does the source give for `O=C(Oc1ccc(/C=N/Nc2ccccc2)cc1)c1ccccc1` here?
A: The Potency was inconclusive [inhibitor, single point].

Q: Which “activity change, negative = growth inhibition” value does the source give for `CCCC(=O)N1CCC1(C)C(=O)Nc1ccccn1` (stereo not given) here?
A: The value was inactive: -21.7%.

Q: With `CN(C)c1ccc(NC(=O)CSc2n[nH]c(-c3ccco3)n2)cc1` as the molecule, how does the “activity change, negative = growth inhibition” value read?
A: The value was inactive: 0.483%.

Q: Which Potency does the source give for `COc1ccc(S(=O)(=O)Nc2ccc3oc(C)c(C(C)=O)c3c2)cc1` here?
A: The Potency was active: 3.26 µM.

Q: With `CCOc1ccc(N2CC(C(=O)Nc3cc(S(=O)(=O)N4CCCCC4)ccc3C)CC2=O)cc1` (stereo not given) as the molecule, how does the Potency read?
A: The Potency was inconclusive [inhibitor, single point].

Q: Which Potency does the source give for `CN(C)S(=O)(=O)Oc1ccsc1C(=O)Nc1cccc(Cl)c1Cl` here?
A: Its Potency is inconclusive [inhibitor, single point].

Q: With `c1ccc(C2Oc3ccccc3C3CC(c4cccs4)=NN32)cc1` (stereo not given) as the molecule, how does the Potency read?
A: The Potency was inconclusive [inhibitor, single point].

Q: Which “activity change, negative = growth inhibition” value does the source give for `O=C(NCc1ccncc1)[C@@H]1CCCN1C(=O)[C@@H]1CCCN1` here?
A: The value was inactive: 3.91%.

Q: With `Cc1ccc(S(=O)(=O)CCSc2cccc(C(=O)Nc3ccccc3C(=O)O)c2)cc1` as the molecule, how does the activity change, negative = growth inhibition read?
A: The activity change, negative = growth inhibition was inconclusive: -32.2% [inhibitor].

Q: Which Potency does the source give for `CCC(C)(C)NC(=O)C(c1ccc(C)cc1)N(Cc1ccco1)C(=O)CCC(=O)Nc1nccs1` (stereo not given) here?
A: The Potency was inconclusive [inhibitor, single point].

Q: With `c1ccc(C(c2ccccc2)N2CCN(Cc3nc(-c4cnccn4)no3)CC2)cc1` as the molecule, how does the Potency read?
A: The Potency was inconclusive [inhibitor, single point].

Q: With `CCOC(=O)c1sc(NC(=O)CCc2ccccc2)nc1C` as the molecule, how does the Potency read?
A: The Potency was active: 1.84 µM.

Q: Which Potency does the source give for `Cc1cc2c([nH]c3ccccc32)c2c1OC(C)(C)C=C2` here?
A: The Potency was inconclusive [inhibitor, single point].

Q: Which “activity change, negative = growth inhibition” value does the source give for `COc1cc(CCC(=O)N2CC(C)OC(C)C2)cc(OC)c1OC` (stereo not given) here?
A: The value was inactive: 1.41%.

Q: Which Potency does the source give for `CC(Oc1ccc2c(-c3ccccc3)cc(=O)oc2c1)C(=O)NCc1ccccn1` (stereo not given) here?
A: Its Potency is inconclusive [inhibitor, single point].

Q: Which Potency does the source give for `COc1cc(/C=N/n2c(C)n[nH]c2=S)ccc1OCc1ccc(F)cc1` here?
A: The Potency was inconclusive [inhibitor, single point].

Q: For `C(=N\N1CCN(C2c3ccccc3-c3ccccc32)CC1)/c1ccncc1`, which Potency is on record?
A: Its Potency is inconclusive [inhibitor, single point].
